Laboratory results published in the BET-seq Pho4 binding data (Le et al. 2018).
This is one part of the list. Values were computed here from the reads of four pooled replicates and scatter widely.

Each sequence was assayed against T1, Pho4 (S. cerevisiae) (UniProt P07270) (assay: relative binding free energy (BET-seq); higher = weaker binding). Settings: reference: library average.
T1 sequence: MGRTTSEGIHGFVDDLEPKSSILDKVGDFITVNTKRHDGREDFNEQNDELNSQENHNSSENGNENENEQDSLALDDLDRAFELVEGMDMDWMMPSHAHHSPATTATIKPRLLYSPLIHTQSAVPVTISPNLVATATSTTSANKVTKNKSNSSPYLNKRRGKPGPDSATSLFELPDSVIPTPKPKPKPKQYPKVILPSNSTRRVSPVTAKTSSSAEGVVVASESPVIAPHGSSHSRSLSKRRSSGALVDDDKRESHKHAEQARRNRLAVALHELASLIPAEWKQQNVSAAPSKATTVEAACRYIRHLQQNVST

Sequence | relative binding free energy
ATTGACACGTGGGTCG | -0.14 kcal/mol
GGTTTCACGTGTCCTG | 0.19 kcal/mol
TTATTCACGTGTGAGA | 0.28 kcal/mol
TTTGACACGTGGGTTA | -0.06 kcal/mol
GATTGCACGTGGGTGG | 0.02 kcal/mol
TAAGTCACGTGTCTGT | -0.01 kcal/mol
GTGTGCACGTGTGGTG | 0.05 kcal/mol
AAACACACGTGTGGGT | 0.03 kcal/mol
TTTCACACGTGTCGGG | 0.14 kcal/mol
ATGTACACGTGTTGGG | 0.06 kcal/mol
TGCATCACGTGTGGTA | 0.11 kcal/mol
TATGACACGTGGGGGG | -0.17 kcal/mol
TTGGGCACGTGGCCGT | -0.1 kcal/mol
TGGCTCACGTGGGTTG | 0.08 kcal/mol
ATTTTCACGTGATCTG | 0.15 kcal/mol
TGGCGCACGTGAGGTC | 0.14 kcal/mol
TTATTCACGTGCTGAA | 0.25 kcal/mol
TGATACACGTGGTTAG | -0.02 kcal/mol
TTGTTCACGTGTCACT | 0.28 kcal/mol
GTTTGCACGTGTTCAT | 0.08 kcal/mol
TATTTCACGTGCTAGT | 0.07 kcal/mol
GGGTACACGTGTTGCT | 0.03 kcal/mol
TGATGCACGTGTGCAG | -0.07 kcal/mol
ATAGACACGTGATTAT | 0.18 kcal/mol
TGCACCACGTGGGGGT | -0.33 kcal/mol

Sequence | relative binding free energy
TTTGTCACGTGAATAT | 0.34 kcal/mol
TTTTTCACGTGGATAC | 0.22 kcal/mol
TAGTTCACGTGCATGG | 0.19 kcal/mol
ATGGCCACGTGGCAGT | -0.08 kcal/mol
TATCTCACGTGTTGTG | 0.19 kcal/mol
AGGGCCACGTGGGGAT | -0.42 kcal/mol
TGGTTCACGTGGGTAC | -0.08 kcal/mol
TGTCCCACGTGAGTGT | 0 kcal/mol
TGGCTCACGTGGGGGG | 0.14 kcal/mol
CTTGGCACGTGTGTTG | -0.08 kcal/mol
ATAGACACGTGGTGGT | -0.09 kcal/mol
CGGGTCACGTGTGTAG | 0.08 kcal/mol
GTTGTCACGTGGAGCC | 0.15 kcal/mol
CGGGGCACGTGGATCG | -0.06 kcal/mol
GGTGTCACGTGGATTC | 0.16 kcal/mol
GGGTTCACGTGGCTAG | 0.42 kcal/mol
TTAGTCACGTGTAGGC | 0 kcal/mol
GTGGGCACGTGCAAGA | -0.08 kcal/mol
TCGTGCACGTGGTATT | -0.16 kcal/mol
CTTTGCACGTGGACGT | 0.07 kcal/mol
GCATTCACGTGGTTGG | 0.21 kcal/mol
AATATCACGTGGATGT | 0.14 kcal/mol
TAACACACGTGGTGTG | -0.16 kcal/mol
TTGATCACGTGAAAGG | 0.32 kcal/mol
TATAGCACGTGTGCAG | -0.02 kcal/mol

Sequence | relative binding free energy
TGGGACACGTGGTGTC | -0.09 kcal/mol
CGGTTCACGTGCGGTG | 0.21 kcal/mol
ATGAACACGTGGAGTA | 0.09 kcal/mol
TTGGACACGTGCGTGA | 0.01 kcal/mol
GGTGACACGTGGTTTT | 0.08 kcal/mol
TCTTGCACGTGAATGT | 0.31 kcal/mol
CATGTCACGTGTGTGC | 0.12 kcal/mol
TGTCACACGTGTGGTG | 0.05 kcal/mol
AATGACACGTGCAGGG | -0.01 kcal/mol
CGTTCCACGTGTGTGT | 0.03 kcal/mol
AAGTTCACGTGGTTGA | 0.34 kcal/mol
CAGTGCACGTGAACGG | 0.4 kcal/mol
AAAAGCACGTGAGTTG | 0.15 kcal/mol
TGTTTCACGTGTAAAA | 0.39 kcal/mol
GAAGGCACGTGAAGGT | 0.24 kcal/mol
TTAACCACGTGGTTGG | -0.26 kcal/mol
GTCGTCACGTGGGAAG | 0.04 kcal/mol
ATGCGCACGTGTTGCT | -0.13 kcal/mol
ATAAGCACGTGGATGG | -0.12 kcal/mol
TTTGGCACGTGTCGGC | -0.02 kcal/mol
GTCATCACGTGGGCAT | 0.23 kcal/mol
GAGTACACGTGTGCGT | 0.17 kcal/mol
GGCGTCACGTGACGTT | 0.36 kcal/mol
TATGGCACGTGTAGAA | -0.13 kcal/mol
GGATTCACGTGCTGGA | 0.33 kcal/mol

Sequence | relative binding free energy
GGCGACACGTGGTGGA | 0.18 kcal/mol
ATGGTCACGTGTGTCA | 0.03 kcal/mol
TGGAGCACGTGGTGGT | -0.15 kcal/mol
AAGTCCACGTGAGTGT | 0.17 kcal/mol
GGAGGCACGTGTGGGG | 0.01 kcal/mol
TATAACACGTGTAGTG | -0.04 kcal/mol
AGAAACACGTGGTTGT | 0.02 kcal/mol
TGGCTCACGTGTGGGT | 0.29 kcal/mol
TGTTTCACGTGGTAAT | 0.24 kcal/mol
GAAATCACGTGTATTA | 0.3 kcal/mol
TTAGACACGTGGTCTT | -0.09 kcal/mol
TAATTCACGTGTGACG | 0.38 kcal/mol
TTAGGCACGTGCTGGG | -0.16 kcal/mol
CGGGCCACGTGGTTAG | -0.13 kcal/mol
GGTGTCACGTGCGGTA | 0.04 kcal/mol
TGTATCACGTGGATTC | 0.19 kcal/mol
AAGAACACGTGGTAGT | 0.01 kcal/mol
GATGGCACGTGTCGGT | 0.04 kcal/mol
AGGTTCACGTGGGCAT | 0.29 kcal/mol
GAATTCACGTGGTTTT | 0.48 kcal/mol
TTCTGCACGTGGGCGG | 0.01 kcal/mol
AGGGGCACGTGAATGG | 0.21 kcal/mol
TTATTCACGTGTTTGC | 0.22 kcal/mol
CGTGACACGTGAGGGC | 0.19 kcal/mol
CGTTTCACGTGTATTG | 0.35 kcal/mol

Sequence | relative binding free energy
TGGTACACGTGGGGAT | -0.02 kcal/mol
TGCATCACGTGTAGGT | 0.23 kcal/mol
TTGAGCACGTGTAAGT | 0 kcal/mol
TCGTCCACGTGGGGTA | -0.19 kcal/mol
AAGGGCACGTGCTGAG | -0.12 kcal/mol
GTGTCCACGTGGGTGA | 0 kcal/mol
GTATTCACGTGTTGCT | 0.23 kcal/mol
TGACGCACGTGTGTAT | 0.05 kcal/mol
TTTTTCACGTGTAGTG | 0.34 kcal/mol
TCGTGCACGTGATGGC | 0.16 kcal/mol
AGTGACACGTGAGAGT | 0.19 kcal/mol
CGGAACACGTGGGGGG | -0.05 kcal/mol
GTATGCACGTGAGAAG | 0.37 kcal/mol
TCGATCACGTGTTGTT | -0.01 kcal/mol
GGGATCACGTGTTTCT | 0.29 kcal/mol
TTGACCACGTGATGAT | 0.28 kcal/mol
GGTTTCACGTGTTGAC | 0.3 kcal/mol
GGGCACACGTGGTCTG | -0.05 kcal/mol
TGTCGCACGTGGAGTA | 0.1 kcal/mol
CTTGTCACGTGTGCTG | -0.01 kcal/mol
CTTTGCACGTGCGGGG | -0.11 kcal/mol
TGCTTCACGTGAGTGG | 0.37 kcal/mol
GTGGACACGTGAATGA | 0.24 kcal/mol
ATTGGCACGTGGGTGT | -0.18 kcal/mol
TTATGCACGTGCTGGA | -0.15 kcal/mol

Sequence | relative binding free energy
TTATTCACGTGCGGGA | 0.18 kcal/mol
ACGGGCACGTGATGGC | 0.03 kcal/mol
TAGGTCACGTGATGCG | 0.24 kcal/mol
TGCGTCACGTGCGGTA | 0.09 kcal/mol
AGGCTCACGTGTTGTT | 0.32 kcal/mol
TTCTACACGTGTAGTG | 0.22 kcal/mol
ATTTGCACGTGAATTT | 0.27 kcal/mol
TTAGACACGTGGACGG | 0.06 kcal/mol
GTCGCCACGTGGGTGG | -0.1 kcal/mol
TTATACACGTGCGTGA | -0.1 kcal/mol
TCTTGCACGTGTTTAG | 0 kcal/mol
TGAGCCACGTGTATGT | 0.02 kcal/mol
GGGGACACGTGAGAAG | 0.39 kcal/mol
TAAGTCACGTGTTAAT | 0.13 kcal/mol
CTGTTCACGTGGGCGT | 0.11 kcal/mol
CGGAGCACGTGAAGGA | 0.35 kcal/mol
GGGATCACGTGGGGTG | 0.12 kcal/mol
GGCGTCACGTGAGGTT | 0.28 kcal/mol
AGGGACACGTGGGGCC | -0.05 kcal/mol
TTTTTCACGTGTATCG | 0.43 kcal/mol
GGTTACACGTGTCGGC | 0.43 kcal/mol
